# Assay results taken from paper PMC4336329 (PLoS ONE, 2015).
# The whole screen tested about 310,000 compounds, of which about 2,200 (0.71%) showed an effect of 50% or more. The effect is printed as a negative number. This is one part of the list.
# Target: human ether-à-go-go-related gene (hERG) potassium channel (human, UniProt Q12809)
# Test: primary screen, population patch clamp on CHO cells stably expressing hERG
# human ether-à-go-go-related gene (hERG) potassium channel, sequence (Q12809 whole entry, looked up): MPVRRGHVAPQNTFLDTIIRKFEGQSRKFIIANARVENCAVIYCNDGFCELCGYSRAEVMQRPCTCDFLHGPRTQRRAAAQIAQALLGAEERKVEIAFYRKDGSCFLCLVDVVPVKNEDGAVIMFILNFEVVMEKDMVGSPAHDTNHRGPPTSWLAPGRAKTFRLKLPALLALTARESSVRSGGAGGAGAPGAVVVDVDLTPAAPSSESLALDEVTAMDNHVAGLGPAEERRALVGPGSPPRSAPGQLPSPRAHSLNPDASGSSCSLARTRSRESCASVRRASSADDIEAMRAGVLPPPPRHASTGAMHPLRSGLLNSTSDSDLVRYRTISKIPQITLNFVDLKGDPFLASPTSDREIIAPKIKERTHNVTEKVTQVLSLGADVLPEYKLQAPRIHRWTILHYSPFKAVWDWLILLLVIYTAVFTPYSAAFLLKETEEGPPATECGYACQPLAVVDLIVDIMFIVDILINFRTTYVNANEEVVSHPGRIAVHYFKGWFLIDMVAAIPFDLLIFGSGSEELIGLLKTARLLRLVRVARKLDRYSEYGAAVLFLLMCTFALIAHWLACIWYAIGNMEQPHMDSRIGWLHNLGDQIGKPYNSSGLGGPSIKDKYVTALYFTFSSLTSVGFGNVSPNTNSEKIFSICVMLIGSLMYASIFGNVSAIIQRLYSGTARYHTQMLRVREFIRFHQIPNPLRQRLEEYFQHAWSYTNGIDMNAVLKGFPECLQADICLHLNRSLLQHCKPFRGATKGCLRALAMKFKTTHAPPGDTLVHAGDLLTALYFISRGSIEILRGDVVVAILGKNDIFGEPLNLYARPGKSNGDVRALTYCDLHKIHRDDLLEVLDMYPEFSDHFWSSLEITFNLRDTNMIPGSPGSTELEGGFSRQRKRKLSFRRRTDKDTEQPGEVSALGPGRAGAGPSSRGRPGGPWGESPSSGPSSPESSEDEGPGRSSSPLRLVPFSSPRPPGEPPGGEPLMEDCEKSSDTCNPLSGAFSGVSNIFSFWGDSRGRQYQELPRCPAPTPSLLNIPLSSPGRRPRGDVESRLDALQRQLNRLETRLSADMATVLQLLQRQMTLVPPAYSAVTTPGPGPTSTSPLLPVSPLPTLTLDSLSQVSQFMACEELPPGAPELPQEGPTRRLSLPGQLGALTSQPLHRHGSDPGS
row,Compound,"hERG current change (%, negative = inhibition) at 1uM [%]"
1,O=C(O)c1cc2nc(-c3ccccc3)cc(-c3ccccc3)n2n1,7.72
2,O=C(O)c1ccc(NS(=O)(=O)c2ccc(Cl)c(C(=O)Nc3ccccc3)c2)cc1,11.4
3,COc1ccc(/C=N/NC(=O)Cc2cc(OC)c(OC)cc2[N+](=O)[O-])cc1,15
4,CCOC(=O)c1[nH]c(COC(=O)C2CC(=O)N(Cc3ccccc3)C2)c(C(=O)OCC)c1C (stereo not drawn),-4.18
5,O=C(NNC(=O)C1CCN(S(=O)(=O)c2ccc(Cl)cc2)CC1)c1ccccc1,11.5
6,Cc1ccc(NC(=O)Cc2cn3ccsc3n2)nc1,9.87
7,O=C(COc1ccc(S(=O)(=O)NCc2ccccc2)cc1)N1CCOCC1,4.14
8,CCn1cc(C(=O)NCC2CCCO2)c(=O)c2cc(F)c(N3CCN(C)CC3)cc21 (stereo not drawn),12.5
9,Cc1[nH]c2ccc(C(=O)NC3CCCC3)cc2c1C,5.73
10,O=C(O)/C=C/c1ccc(S(=O)(=O)Nc2ccc(C(=O)NCC(=O)O)cc2)cc1,-1.16
11,C=CCc1cccc(CNc2c(C)n(C)n(-c3ccccc3)c2=O)c1O,4.43
12,COc1ccc(S(=O)(=O)N2CCOCC2)cc1NC(=O)CSc1nnc2ccccn12,6.39
13,O=C(Nc1nc(-c2ccccn2)cs1)c1cccc(-n2cnnn2)c1,-0.276
14,CCC(C)(C)NC(=O)C(c1cccs1)N(C(=O)c1ccn[nH]1)c1cccc(OC)c1 (stereo not drawn),-23.4
15,O=C(NCC1CCOCC1)c1ccc2nc(Cc3cccc(Cl)c3)oc2c1,8.35
16,CCC(C(=O)Nc1cccc(C(=O)O)c1C)c1ccccc1 (stereo not drawn),13.1
17,Cc1nc2c3ccccc3nc(NNC(=O)CCC(=O)NCCN3CCN(c4ccccc4)CC3)n2n1,6.33
18,Cn1c(SCC(=O)NCc2ccco2)nnc1-c1ccccc1,5.48
19,CCCn1c2ccccc2c2cnn(CC(=O)NC3CCC(C)CC3)c(=O)c21 (stereo not drawn),24.2
20,COc1cc2c(cc1OC)CN(C(=O)c1cc(C3CC3)nn1-c1ccccc1)CC2,-3.34
21,Cc1ccc(NC(=O)CCC(=O)N/N=C/c2coc3ccccc3c2=O)cc1,9.08
22,CN(C)S(=O)(=O)c1ccc(NC(=O)c2ccc([N+](=O)[O-])cc2)cc1,9.94
23,S=C(NC1CCCCC1)N(CCc1nc2ccccc2[nH]1)C1CCCC1,12.4

row,Compound,"hERG current change (%, negative = inhibition) at 1uM [%]"
1,Cc1cc(C)cc(NC(=S)NCc2ccncc2)c1,6.75
2,C/C=C/C(=O)NCCc1ccc(OC)c(OC)c1,4.29
3,CCC(CC)C(=O)NCCN1CCN(C(=O)C(CC)CC)CC1,14
4,COc1ccc(CCC(=O)Nc2ccccc2C(F)(F)F)cc1,16.1
5,O=C(Nc1ccc(Br)cc1)c1ccc(-n2cnnn2)cc1,13
6,CCCn1c(SCC(=O)N2CCCCC2)nnc1-c1ccccn1,6.39
7,COc1cc(OC)cc(OCC(O)Cn2cnc3cc(C)c(C)cc32)c1 (stereo not drawn),8.38
8,CC(=O)N1CCN(C(=S)NC(=O)C23CC4CC(CC(C4)C2)C3)CC1,15.4
9,O=C(CN1CCOCC1)N/N=C/C(Br)=C\c1ccccc1,10.8
10,COc1cc(CC(=O)Nc2ccc3nc(C)sc3c2)cc(OC)c1OC,2.29
11,Cc1noc(C)c1C(=O)Nc1ccc(Cl)cc1C(F)(F)F,-2.48
12,Nc1nccc(-c2cc(-c3ccc(Cl)cc3Cl)no2)n1,10.5
13,CC(=O)c1c(C(C)=O)c(C)n(-c2nc(-c3cccs3)c(C)s2)c1C,17.3
14,C=CCNC(=O)C1CCC(CNc2nc(=S)[nH]c3ccccc23)CC1 (stereo not drawn),25.1
15,COc1cc(C(=O)/C=C/Nc2ccc(NC(C)=O)cc2)cc(OC)c1OC,7.16
16,Cc1cc2[nH]ncc2cc1NC(N)=S,11.5
17,O=C(CSc1nc(-c2ccccc2)cc(=O)[nH]1)Nc1ccccc1,10.9
18,Cc1ccc(NC(=O)CSCC(=O)Nc2nnc(C3CC3)s2)cc1,10.1
19,Nc1nonc1-n1nnc(C(=O)N/N=C/c2ccoc2)c1CSc1ccc(Cl)cc1,11.4
20,COc1ccccc1CN1CC(C(=O)NCc2cc(F)cc(C(F)(F)F)c2)CCC1=O (stereo not drawn),9.11
21,CSc1ncccc1C(=O)Nc1nc2ccc(F)cc2s1,16.2
22,COCCCn1c(=O)c2ccccc2n(CC(=O)N2CCCc3ccccc32)c1=O,-4.71
